# Experimental data reported in article PMC4336329 (PLoS ONE, 2015).
# Out of some 310,000 compounds screened, about 14,000 (4.5%) showed an effect of 50% or more. Effects have a minus sign here. The list shows a part of the results. Where a SMILES comes first, the peptide text is derived from it. The star is where a group is joined. Boc = CC(C)(C)OC(=O)*
# Target: human ether-à-go-go-related gene (hERG) potassium channel (human, UniProt Q12809)
# Test: primary screen, population patch clamp on CHO cells stably expressing hERG
# 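Note: peak tail current of the secondary pulse compared with the same well before compound.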
# human ether-à-go-go-related gene (hERG) potassium channel, sequence (Q12809 whole entry, looked up): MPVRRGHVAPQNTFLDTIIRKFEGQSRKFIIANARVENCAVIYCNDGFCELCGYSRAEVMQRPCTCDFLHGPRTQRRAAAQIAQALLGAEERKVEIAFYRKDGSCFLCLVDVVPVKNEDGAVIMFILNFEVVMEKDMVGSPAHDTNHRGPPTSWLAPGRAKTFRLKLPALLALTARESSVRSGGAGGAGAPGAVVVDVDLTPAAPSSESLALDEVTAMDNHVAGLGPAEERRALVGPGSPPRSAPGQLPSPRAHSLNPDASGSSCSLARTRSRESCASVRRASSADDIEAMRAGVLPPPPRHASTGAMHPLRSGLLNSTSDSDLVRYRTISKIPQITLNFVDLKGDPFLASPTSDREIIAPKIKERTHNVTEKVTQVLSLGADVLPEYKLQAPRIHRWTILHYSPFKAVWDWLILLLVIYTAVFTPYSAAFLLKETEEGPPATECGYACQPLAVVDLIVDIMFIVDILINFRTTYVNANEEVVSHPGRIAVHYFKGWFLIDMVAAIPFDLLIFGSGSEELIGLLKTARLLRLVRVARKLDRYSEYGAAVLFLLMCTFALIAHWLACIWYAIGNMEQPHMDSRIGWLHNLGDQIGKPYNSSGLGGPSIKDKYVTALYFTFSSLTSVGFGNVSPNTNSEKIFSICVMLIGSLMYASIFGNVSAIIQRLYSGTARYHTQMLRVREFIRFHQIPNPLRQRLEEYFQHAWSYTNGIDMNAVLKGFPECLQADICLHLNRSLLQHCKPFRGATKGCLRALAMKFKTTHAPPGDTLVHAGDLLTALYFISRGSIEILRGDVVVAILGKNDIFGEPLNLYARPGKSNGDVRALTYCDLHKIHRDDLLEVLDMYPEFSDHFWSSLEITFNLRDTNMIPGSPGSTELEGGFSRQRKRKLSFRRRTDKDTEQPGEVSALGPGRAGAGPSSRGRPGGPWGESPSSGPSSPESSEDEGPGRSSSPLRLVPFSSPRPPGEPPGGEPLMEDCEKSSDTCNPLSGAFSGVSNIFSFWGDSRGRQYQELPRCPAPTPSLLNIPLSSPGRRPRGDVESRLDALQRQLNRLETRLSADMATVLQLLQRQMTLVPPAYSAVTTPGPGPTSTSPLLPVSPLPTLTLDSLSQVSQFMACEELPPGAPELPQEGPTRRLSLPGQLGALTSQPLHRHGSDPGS
row,SMILES,"hERG current change (%, negative = inhibition) at 10uM"
1,COCCCNc1nc2nonc2nc1N(C)CC1CCCN1C (centres unmarked),2.5%
2,CN1CCN(c2ccc(NC(=O)Cc3ccccc3)cc2)CC1,-8.92%
3,CCC(=O)N1CCc2cc(S(=O)(=O)N3CCc4ccccc43)ccc21,2.61%
4,COC(=O)c1cc2ccsc2n1Cc1ccccc1F,-4.64%
5,O=C(CSc1nc2c(c(=O)n1-c1ccc(Cl)cc1)SCC2)N1CCCC1,-17.4%
6,Cc1ccc(S(=O)(=O)N2CC[C@@H]2C(=O)O)cc1,14%
7,CCc1ccc(-c2cc(C)no2)cc1S(=O)(=O)NCc1ccc(OC)c(OC)c1,-10%
8,CCN(c1ccc(C)c(C)c1)S(=O)(=O)c1c(C)[nH]c(=O)[nH]c1=O,14.6%
9,O=C(CSc1ccc(-c2ccccn2)nn1)c1ccc(F)cc1,-10.4%
10,Cc1ccc(CNC(=O)Cn2cncn2)cc1,12.5%
11,COc1cccc(NC(=O)N2CCC(C(N)=O)(N3CCCCC3)CC2)c1,6.17%
12,CCOc1ccc(N2C(=O)CC(=O)NC2=O)cc1,24.3%
13,CCn1c(CC(=O)Nc2ccccc2F)nnc1SCC(=O)Nc1nncs1,1.11%
14,Cn1nc(C(F)(F)F)c(-c2ccc(Br)cc2)c1NC(=O)c1nccnc1C(=O)O,17.7%
15,O=[N+]([O-])c1cc(-c2ncccn2)cs1,14.7%
16,Cc1[nH]c(=S)c(C#N)c(C)c1C(=O)Nc1ccccc1,15.1%
17,CCCCN(CC)CCNC(=O)c1cc2c(-c3ccccc3F)nn(C)c2s1,-66.7%
18,O=C(CCc1ccc(Oc2cc([N+](=O)[O-])cc([N+](=O)[O-])c2)cc1)NC1CCCC1,-5.16%
19,CCOc1ccc(N2C(=O)C(=O)/C(=C(/O)c3ccccc3)C2c2ccccc2[N+](=O)[O-])cc1 (centres unmarked),13.2%
20,O=C1c2ccccc2NC(c2cn[nH]c2-c2ccc(Cl)cc2)N1O (centres unmarked),13.1%
21,CCSc1nnc(-c2ccc(Cl)cc2Cl)o1,-1.56%
22,CS(=O)(=O)N1CCN(c2ccccc2[N+](=O)[O-])CC1,6.06%

row,SMILES,"hERG current change (%, negative = inhibition) at 10uM"
1,CC(=O)c1cccc(NC(=O)NNC(=O)c2ccc(Cl)cc2Cl)c1,-6.36%
2,CC(=O)c1cc(C#N)c(SCC(=O)Nc2nccs2)nc1C,23.7%
3,CC(=O)C12C3C4C(C5C1C3C5(Br)C41OCCO1)C21OCCO1 (centres unmarked),1.34%
4,Nc1c(Cl)ncnc1NCCc1ccc(O)cc1,9.93%
5,CN(CC(=O)Nc1ccc(SC(F)F)cc1)C1CCCCC1,-70%
6,Cc1cc(C(F)F)nn1CC(=O)NCc1ccco1,16.3%
7,CCc1ccc(C(=O)Nc2nc3ccccc3[nH]2)cc1,17.2%
8,CCOC(=O)c1ccc(NS(=O)(=O)c2cc(-c3nnnn3CC)ccc2OC)cc1,10.6%
9,COc1ccccc1/C=C/C=N\N1CCN(Cc2ccccc2Cl)CC1.Cl,7.53%
10,Cc1ccc(OCCNS(=O)(=O)c2ccc(N3CCCC3=O)cc2)cc1,9.5%
11,Cc1nnsc1C(=O)NC1CCCc2c1cnn2-c1ccc(F)cc1F (centres unmarked),12.5%
12,O=C(CSCc1ccccc1)N1CCc2ccccc21,-14.8%
13,CC1Oc2ccccc2N(CC(=O)c2cccc(Cl)c2)C1=O (centres unmarked),-23.2%
14,CCC(=O)N1CCN(c2ccc(NC(=S)NC(=O)COc3ccccc3)cc2)CC1,-21.6%
15,O=C(O)/C=C/c1cccc2c1OCCO2,-4.71%
16,O=C(CSc1nnc(-c2ccco2)n1-c1ccccc1)NCCc1ccccc1,-69.4%
17,Oc1c(Br)cc2oc3c(c2c1CNCc1ccccc1)CCCC3,15.5%
18,CC1CCN(c2nc3c(c(=O)[nH]c(=O)n3C)n2CC(C)CSc2nnnn2-c2ccccc2)CC1 (centres unmarked),-57.6%
19,CCn1c(CNC(=O)c2ccccc2F)nnc1SCc1nc2ccccc2c(=O)[nH]1,0.31%
20,CCN(CC)CCC(c1ccc(N(C)C)cc1)c1c(OC)cc(OC)c2c(-c3ccccc3)cc(=O)oc12 (centres unmarked),-24.5%
21,O=c1[nH]c(=O)n(CCC2=CCCCC2)c(O)c1/C=N/N1CCOCC1,-21.6%
22,O=C(NCCCCc1ccccc1)c1cc([N+](=O)[O-])cc([N+](=O)[O-])c1,-17.5%

row,SMILES,"hERG current change (%, negative = inhibition) at 10uM"
1,CN(CC(=O)Nc1cccc(S(=O)(=O)N2CCCCC2)c1)Cc1ccc(F)cc1,-20.1%
2,O=C(CO/N=C\c1ccccc1)Nc1ccccc1C(=O)N1CCOCC1,20.2%
3,O=C(CCN1CCOCC1)N1CCc2c([nH]c3ccccc23)C1c1cccc(Cl)c1 (centres unmarked),-70.5%
4,Cc1ccc(S(=O)(=O)N(Cc2ccc(Cl)cc2)c2ccccc2C(=O)NCc2cccnc2)cc1,-52%
5,C[C@@H](C(=O)Nc1ccc2c(c1)OCO2)n1c(=O)[nH]c2ccccc2c1=O,20.3%
6,CCOc1ccc(N2C(=O)NC(=O)/C(=C\c3cc(OC)c(OC)cc3[N+](=O)[O-])C2=O)cc1,27.1%
7,COc1cc(/C=C/C(=O)Oc2coc(CSc3ncccn3)cc2=O)cc(OC)c1OC,31.1%
8,Cc1ccc(-c2nc(N)sc2CC(=O)OCC(=O)N2C(C)CCCC2C)cc1 (centres unmarked),-7.22%
9,O=C(NC(=S)NCCc1ccccc1)c1ccccc1F,15.2%
10,Cc1ccc(S(=O)(=O)N(C)C)cc1NC(=O)COC(=O)CCC(=O)c1ccc(F)cc1,-49.1%
11,CCOC(=O)C1CCCN(C(=O)c2cnn3c(C(F)(F)F)cc(-c4ccccc4)nc23)C1 (centres unmarked),-26.4%
12,CCOP(=O)(OCC)c1nc(-c2ccc(C)cc2)oc1N1CCOCC1,-2.68%
13,COc1cccc(OC)c1C(=O)Nc1cccc(-c2ccc(N3CCOCC3)nn2)c1,17.8%
14,Cc1cc(C)n2nc(C(=O)N(C)C(c3ccccc3)c3ccccc3)nc2n1,-17.4%
15,COCCOC(=O)/C(=C\c1cc(C(C)(C)C)c(O)c(C(C)(C)C)c1)C(C)=O,-19.7%
16,Cc1cc(S(=O)(=O)N2CCN=C2c2ccccc2)c(C)cc1Cl,-8.15%
17,Cc1cccc(C)c1NC(=O)C(c1ccccc1)N1CCOCC1 (centres unmarked),9.4%
18,COc1ccc(NC(=O)Nc2ccccc2C(N)=O)cc1OC,7.59%
19,COc1ccc(S(=O)(=O)N2CCOC2CNC(=O)C(=O)NCCCN2CCOCC2)cc1OC (centres unmarked),8.41%
20,COc1ccc(NC(=O)CN2CC(C)OC(C)C2)cc1Cl (centres unmarked),29.6%
21,Cc1cn(-c2ccccc2)c(C)c1/C=N\Nc1nc(N2CCOCC2)nc(N2CCOCC2)n1,-7.11%
22,Cc1cccc(Nc2ncnc3c2cnn3Cc2ccccc2)c1,4.63%

row,SMILES,"hERG current change (%, negative = inhibition) at 10uM"
1,CC(Cc1cccc(C(F)(F)F)c1)NCCOC(=O)c1ccccc1 (centres unmarked),-21.5%
2,CCN(CC)S(=O)(=O)c1ccc(N2CCCC2)c(NC(=O)Cc2c(F)cccc2Cl)c1,10.3%
3,NC(=O)COC(=O)c1c2c(nc3ccccc13)CCC2,9.85%
4,O=C(CN(Cc1ccc(F)cc1)C(=O)CCC(=O)Nc1ccccn1)NCc1ccco1,-25.9%
5,CCCCOC(=O)c1ccc(NC(=O)CSC2=Nc3ccccc3C3CC=NN23)cc1 (centres unmarked),15.4%
6,COc1cccc(NC(=O)CN2C(=O)NC(C)(CC(C)C)C2=O)c1 (centres unmarked),6.03%
7,O=C(CNc1cccc2ccccc12)N/N=C/C=C/c1ccco1,-2.28%
8,CCOC(=O)C1CCN(S(=O)(=O)c2cc(Cl)c(C)cc2OC)CC1,-35.1%
9,CCOCCCN1C(=O)CN(C2CCC(C)CC2)C(=O)C1c1ccc(C)cc1 (centres unmarked),-31.9%
10,COc1ccc(S(=O)(=O)N2CCC3(CC2)CC(=O)c2ccccc2O3)cc1OC,11.6%
11,COc1ccc(C2=Nn3c(nnc3-c3ccc(OC)cc3)SC2)cc1,-55%
12,COc1ccccc1NC(=O)Nc1nc(CC(=O)Nc2ccc(N(C)C)cc2)cs1,2.98%
13,CCN1CCN(C(=O)C(C)Nc2ccc(OC)cc2OC)CC1 (centres unmarked),-6.18%
14,Cc1ccccc1C(=O)Nc1nnc(-c2ccco2)s1,17.2%
15,O=C(NCc1ccco1)NC1CCCCC1,-0.279%
16,COc1cccc(NC(=O)c2ccc(CN3CCN(c4ccccc4)CC3)cc2)c1,-48.8%
17,NC(=O)[C@@H]1CCCN1Cc1nc(-c2ccc(C(F)(F)F)cc2)no1,-5.68%
18,COc1ccc(-n2ncc(C(C)NS(=O)(=O)c3cc(F)ccc3C)c2C)cc1 (centres unmarked),-31.5%
19,CC(C)CC(NC(=O)C(NC(=O)OC(C)(C)C)C(C)C)C(N)=O (stereo not drawn) (Boc-Val-Leu-NH2; configuration not given here),5.69%
20,C[C@@H]1C(=O)O[C@@H]2[C@H](O)C34[C@H]5C[C@@H](C(C)(C)C)C36[C@H](OC(=O)[C@@H]6O)OC4(C(=O)O5)[C@@]12O (some centres unmarked),17.7%
